# Measurements reported in PubChem BioAssay AID485294 (National Center for Advancing Translational Sciences (NCATS), 2010).
# Out of some 370,000 compounds screened, about 150 (0.041%) were called active. Inconclusive means that the source gave no clear call. Such entries were picked first, then a sample of the others. Calls follow the shape of the dose curve; as a rule, active = well fitted inhibition curve with a large enough effect; inconclusive = small, poorly fitted or top-dose-only effect; inactive = flat fitted curve, though single readings scatter. No potency is given beside an inconclusive call; the fits are too rough.
# Biological target: Beta-lactamase (Escherichia coli (strain K12)) (UniProt P00811)
# UniProt P00811, sequence (P00811 whole entry, looked up): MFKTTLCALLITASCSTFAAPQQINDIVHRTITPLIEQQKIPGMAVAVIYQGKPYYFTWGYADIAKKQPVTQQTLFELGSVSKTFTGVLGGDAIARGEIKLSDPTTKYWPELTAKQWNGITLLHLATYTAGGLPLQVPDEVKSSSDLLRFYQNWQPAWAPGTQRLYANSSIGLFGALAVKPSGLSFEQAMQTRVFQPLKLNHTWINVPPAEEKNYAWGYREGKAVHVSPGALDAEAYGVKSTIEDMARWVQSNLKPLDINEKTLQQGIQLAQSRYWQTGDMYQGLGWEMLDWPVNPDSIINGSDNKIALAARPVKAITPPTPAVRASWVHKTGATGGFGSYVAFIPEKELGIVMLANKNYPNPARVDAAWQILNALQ
# Experiment: qHTS Inhibitors of AmpC Beta-Lactamase (assay with detergent); also: nearly all actives have a fitted effect of over 25% in size;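 as to activity change, negative = inhibition: 0% = no-compound wells and -100% = no-enzyme wells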
# Details: AmpC hydrolysis of nitrocefin, absorbance 480 nm, 0.01% Triton; activity change, negative = inhibition: at 114 µM (top of the series)
# Procedure, shortened: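 AmpC (5.3 nM in the dispensed reagent) in 20 mM phosphate pH 7.0 with 0.01% (detergent screen) or 0.0001% Triton X-100 was preincubated with compounds for 15 min at room temperature. Nitrocefin was then added from an 800 uM solution, and hydrolysis was followed at 480 nm.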
# Potency is read from the fitted curve at half-maximal effect; tags tell the direction and shape of the fitted curve.
SMILES,"activity change, negative = inhibition",Potency
CCC(=O)N1CCc2cc(S(=O)(=O)N(C)c3cccc(C)c3)ccc21,inactive: 8.59%,
CCN1CCN(c2ccc(N)cc2C)CC1,,"inconclusive [inhibitor, full curve, poor fit]"
Cc1ccnc(NC(=O)c2ccc(NC(=O)CC3SC(N4CCCC4)=NC3=O)cc2)c1 (stereo not given),,"inconclusive [inhibitor, partial curve, poor fit]"
COc1ccc2nc(NC(=O)C3CC(=O)N(c4ccccc4)C3)sc2c1 (stereo not given),inactive: 2.53%,
CC(=O)OC1=Cc2c(ccc3ccc(=O)oc23)OC1(C)C,inactive: -7.41%,
Cc1ccc(S(=O)(=O)N2CCC(=O)N(CCOCc3ccc(C(F)(F)F)cc3)CC2)cc1,,"inconclusive [inhibitor, partial curve]"
N#CC1(NC(=O)COC(=O)c2nccnc2N)CCCCC1,,"inconclusive [inhibitor, full curve, poor fit]"
O=C(COC(=O)/C=C/c1ccc(OC(F)F)cc1)Nc1ccc(S(=O)(=O)N2CCCC2)cc1,,"inconclusive [inhibitor, partial curve, poor fit]"
CC/C(=N\NC(=O)c1nnn(-c2nonc2N)c1CN(C)c1ccccc1)c1ccccc1,,"inconclusive [inhibitor, partial curve]"
O=C1C2CC=CCC2C(=O)N1Cc1ccccc1 (stereo not given),inactive: 7.89%,
O=C1C2CC=CCC2C(=O)N1c1n[nH]c(CCc2ccccc2)n1 (stereo not given),,"inconclusive [inhibitor, full curve, poor fit]"
O=C(CSc1nncs1)Nc1ccc2c(c1)OCCO2,,"inconclusive [inhibitor, single point]"
CN(C)c1ccc(C(C(=O)NCc2ccccc2)N(Cc2ccco2)C(=O)c2snc(C(N)=O)c2N)cc1 (stereo not given),inactive: -14.1%,
CC(C)CN(C(=O)CSc1nnc(C2CC2)n1-c1ccccc1)C1CCS(=O)(=O)C1 (stereo not given),,"inconclusive [inhibitor, single point]"
CC1CCCCC1NC(=O)Cc1ccc(S(=O)(=O)N2CCOCC2)s1 (stereo not given),,"inconclusive [inhibitor, partial curve, poor fit]"
CCn1c(=O)c(C(=O)Nc2ccc(C)cc2C)c(O)c2ccccc21,inactive: 6.64%,
O=C1CC(N2CCN(c3ccccc3Cl)CC2)C(=O)N1c1ccc(F)cc1 (stereo not given),,"inconclusive [inhibitor, partial curve]"
Cc1nn(Cc2c(Cl)cccc2Cl)c(C)c1NC(=O)CCCn1nc(C)c([N+](=O)[O-])c1C,,"inconclusive [inhibitor, full curve]"
Cc1ccc(-n2c3c(cc(C(=O)Nc4cccc(C)n4)c2=O)C(=O)CCC3)cc1,,"inconclusive [inhibitor, full curve, poor fit]"
O=C(Nc1ccc(Cl)cc1)N1CCOC12CCC1(CC2)OCCO1,,"inconclusive [inhibitor, single point]"
CC(C)C(C)NC(=O)COc1ncnc2ccccc12 (stereo not given),,"inconclusive [inhibitor, single point]"
O=c1[nH]cc(F)c(=O)[nH]1,inactive: -7.13%,
CC(C)C(=O)Nc1ccc(C(=O)N2CCCCCC2)cc1,,"inconclusive [inhibitor, full curve, poor fit]"
COc1ccc(C2c3cc(OC)c(OC)cc3CCN2C(=O)c2ccccc2)cc1OC (stereo not given),,"inconclusive [inhibitor, full curve, poor fit]"

SMILES,"activity change, negative = inhibition",Potency
COc1ccccc1C(=O)Nc1sc2c(c1C(N)=O)CCCC2,inactive: -7.11%,
C/C(CC(=O)Nc1cccc2c1CCCC2)=N\NC(=O)c1cccc2ccccc12,,"inconclusive [inhibitor, full curve, poor fit]"
Cc1cccc(N2C(=O)c3cccc4c(N(C)CCO)ccc(c34)C2=O)c1,,"inconclusive [inhibitor, full curve, poor fit]"
O=S(=O)(CCc1ccccc1)/N=C/c1cccs1,,"inconclusive [inhibitor, partial curve, poor fit]"
O=C(C1CCN(S(=O)(=O)c2cccs2)CC1)N1CCN(c2ccccc2O)CC1,inactive: 0.901%,
NS(=O)(=O)c1ccc(CCNC(=O)c2ccccc2-c2ccccc2)cc1,,"inconclusive [inhibitor, full curve, poor fit]"
CC(C)C(NS(=O)(=O)c1cccc2nsnc12)C(=O)NC1CCCCC1 (stereo not given),inactive: -2.31%,
CCOP(=O)(CN(CC)CCNP(=O)(OCC)OCC)OCC,,"inconclusive [inhibitor, full curve, poor fit]"
Cc1cc(S(=O)(=O)NCCCN2CCOCC2)ccc1Br,,"inconclusive [inhibitor, full curve, poor fit]"
Cc1ccc(C)c(S(=O)(=O)Nc2ccc(S(=O)(=O)Nc3onc(C)c3C)cc2)c1,,"inconclusive [inhibitor, full curve, poor fit]"
Cc1ccc(C)c(N2CCN(C(=O)c3cc4c(=O)n(Cc5cccs5)ccc4nc3C)CC2)c1,inactive: 20.3%,
COc1ccc(C(c2c[nH]c3ccccc23)c2c[nH]c3ccccc23)cc1O,,"inconclusive [inhibitor, full curve, poor fit]"
NCCc1c[nH]c2ccc(O)cc12,,"inconclusive [inhibitor, full curve]"
COc1cccc(NC=C2C(=O)OC3(CCCCC3)OC2=O)c1,,"inconclusive [inhibitor, full curve, poor fit]"
O=c1[nH]n(-c2ncnc3c2cnn3-c2ccccc2)c(=O)c2ccccc12,,"inconclusive [inhibitor, partial curve, poor fit]"
CCOC(=O)C1=C(C)N(CCCC(=O)O)C(=O)NC1c1ccc(Cl)cc1 (stereo not given),,"inconclusive [inhibitor, partial curve, poor fit]"
NC1=NC(=O)C(CC(=O)NCc2ccccc2)S1 (stereo not given),,"inconclusive [inhibitor, partial curve]"
CCOC(=O)CC(=O)CSc1nc2cc(C)ccc2cc1C,inactive: -2.39%,
NC(=O)CSc1nnc(-c2ccncc2)n1-c1ccc(Cl)cc1,,"inconclusive [inhibitor, partial curve]"
CCN(CC)c1ccc2cc(-c3nc(-c4ccc(Cl)cc4Cl)cs3)c(=O)oc2c1,inactive: -7.28%,
Cc1cccn2c(=O)c(C=NCCO)c(Nc3ccc(Cl)cc3)nc12,,"inconclusive [inhibitor, full curve, poor fit]"
O=C(Nc1nccs1)Oc1ccccc1,,"inconclusive [inhibitor, partial curve, poor fit]"
Cc1c(NC(=O)c2cccc(NC(=O)COc3ccccc3C#N)c2)c(=O)n(-c2ccccc2)n1C,,"inconclusive [inhibitor, full curve, poor fit]"
CCCCOC(=O)/C(=C/C=C/c1ccccc1)NC(=O)c1ccccc1,inactive: -5.1%,

SMILES,"activity change, negative = inhibition",Potency
O=C(N/N=C/c1cccc(Cl)c1)C1CCCC1,inactive: 1.46%,
O=C(CSc1nc2ccccc2c(=O)[nH]1)Nc1ccc(S(=O)(=O)N2CCCC2)cc1,inactive: -12.5%,
Cc1cc(N/C=C\c2nnnn2-c2ccc(F)cc2)no1,,"inconclusive [inhibitor, partial curve]"
COc1cc(C)c2occ(/C(C)=N\O)c2c1,,"inconclusive [inhibitor, full curve, poor fit]"
COc1ccc(S(=O)(=O)N2CCOC23CCN(S(=O)(=O)c2c(C)cc(C)cc2C)CC3)cc1,,"inconclusive [inhibitor, partial curve, poor fit]"
Cc1ccc(C(=O)OCc2cc(=O)n3nc(-c4cccs4)sc3n2)cc1,inactive: 18.5%,
COc1cc2c(=O)n(CCC(=O)NCC3CCCO3)c(=O)n(CC(=O)c3ccc(Cl)cc3)c2cc1OC (stereo not given),inactive: -4.35%,
CC(=C/c1ccccc1)/C=N/NC(=O)c1cnccn1,inactive: -11.5%,
CCCCCn1c(=O)[nH]c2cc(C(=O)N3CCN(c4cc(Cl)ccc4C)CC3)ccc2c1=O,,"inconclusive [inhibitor, single point]"
O=C(c1cc2nc(-c3ccco3)cc(C(F)(F)F)n2n1)N1CCN(c2ccccn2)CC1,,"inconclusive [inhibitor, partial curve]"
Cc1[nH]c2ccccc2c1C(=O)CCl,inactive: -5.4%,
COC(=O)N1CCN(c2ccc(OC)cc2)CC1,,"inconclusive [inhibitor, full curve, poor fit]"
CC(=O)c1ccc(NC(=O)c2ccc3c(c2)nnn3C2CCCC2)cc1,inactive: 3.19%,
Cc1ccc(C(=O)N2CCCC(CCC(=O)NCc3ccccc3F)C2)cn1 (stereo not given),inactive: 3.77%,
CC(C)(C)NC(=O)CN(Cc1ccccc1)S(=O)(=O)c1ccccc1,inactive: -9.61%,
CCC(=O)Nc1ccccc1C(=O)C(=O)Nc1ccccc1,inactive: -12.1%,
Cc1ccccc1CNC(=O)Cn1ccc2cc(S(=O)(=O)N3CCCCC3)ccc21,inactive: 1.85%,
O=C(COC(=O)c1cccc([N+](=O)[O-])c1)NCc1ccc2c(c1)OCO2,inactive: -5.01%,
CCOc1ccc(C(=O)c2cn(CC(=O)Nc3ccc4c(c3)OCCO4)c3ccc(OC)cc3c2=O)cc1,inactive: 8.05%,
COc1ccc2nc(NC(=O)C3CC(=O)N(c4ccc5c(c4)OCCO5)C3)sc2c1 (stereo not given),,"inconclusive [inhibitor, partial curve, poor fit]"
CN1C=C(C(F)(F)F)C=C/C1=C(\C#N)c1nnc2n1CCCCC2,,"inconclusive [inhibitor, partial curve, poor fit]"
Cc1cccc(NC(=O)c2cnc3sccn3c2=O)c1C,,"inconclusive [inhibitor, full curve, poor fit]"
